Experimental data reported in PubChem BioAssay AID1745853 (National Center for Advancing Translational Sciences (NCATS), 2022).
The list shows a part of the results. Further columns of the screen follow, without active or inactive calls.

Experiments:
Experiment in all cases: Primary Screen for Target Class Profiling of Small Molecule Inhibitors of Methyltransferases
[1] = biological target: Glycine N-methyltransferase (Homo sapiens) (UniProt Q14749); settings: purified enzyme, MTase-Glo SAH luminescence; measured here: GNMT inhibition; at 40 µM; stronger effect = lower value
Text: (§1) PI: Matthew D. Hall Ph.D. and Quinlin M. Hanson Ph.D.
(§2) National Center for Advancing Translational Sciences (NCATS)
(§3) National Institute of Health (NIH), Rockville, MD
(§4) Target class profiling (TCP) is a chemical biology approach amenable to investigating understudied biological targets. TCP is achieved by developing a generalizable assay platform and applying it to screen a curated set of compound libraries against representative members of a target class. Small molecule methyltransferases (SMMTase) are a subclass of methyltransferase that act on metabolites to modulate signaling pathways, metabolize xenobiotics, or balance the available methyl pool. We screened four curated libraries totaling 27,574 unique compounds against the SMMTases nicotinamide N-methyltransferase (NNMT), phenylethanolamine N-methyltransferase (PNMT), histamine N-methyltransferase (HNMT), glycine N-methyltransferase (GNMT), catechol O-methyltransferase (COMT), and guanidinoacetate N-methyltransferase (GAMT). The data generated by this TCP can be leveraged for informed tool molecule development. For example, in the associated publication we identified a chemotype of HNMT-selective inhibitors. Additionally, we identified a putative SMMTase-selective inhibitor with potential as a tool molecule for studying broader methyltransferase biology.
(§5) High-through put screening assays were developed at the National Center for Advancing Translational Science (NCATS) for the enzymes NNMT, PNMT, HNMT, GNMT, COMT, and GAMT. Enzymatic activity was measured as a function of SAM cofactor conversion using the MTase Glo kit (Promega) for all enzymes. All assays were performed in 1536-well format with substrates and SAM concentrations at KM values. Enzyme concentration and assay timing were optimized for 10-20% SAM conversion. Initial screening of 27,574 compounds was done as single-point assays using the highest compound concentration (40 uM). […] These compounds were replated in 11-point dose response and assayed against NNMT, PNMT, HNMT, GNMT, COMT, GAMT, and a counter-assay. The IC50 and efficacy (maximal response) values were determined for each dose-response curve. These values are also accounted for in the area under the curve (AUC) values.
(§6) PROTOCOL TABLE (as described by Inglese J, Shamu CE and Guy RK. 2007)
(§7) SEQUENCE No. (e.g., 1, 2, 3, etc.); […] (e.g., Cells, Incubation, Reagent, etc.); VALUE; DESCRIPTION.
(§8) 1; Reagent; 2 uL; SMMTase Enzyme (2x) in reaction buffer, columns 1- 48.
(§9) 2; Reagent; 1 uL; SAM (4x) in reaction buffer, columns 1-48.
(§10) 3; Controls; 23 nL; DMSO in column 4; sinefungin in DMSO (0 uM - 40 uM) in 7-point 1:2 dilution series (n = 2) in column 2.
(§11) 4; Compounds; 23 nL; Columns 5-48.
(§12) 5; Reagent; 1 uL; Substrate (4x) in reaction buffer, columns 2-48.
(§13) 6; Time; 20-30 min; Incubation.
(§14) 7; Reagent; 1 uL; MTase-Glo reagent (5X), columns 1-48.
(§15) 8; Time; 30 min; Incubation.
(§16) 9; Reagent; 5 uL; MTase-Glo Detection reagent, columns 1-48.
(§17) 10; Time; 30 min; Incubation, luminescence evolution.
(§18) 11; Detection; Luminescence; ViewLux uHTS Microplate Imager (PerkinElmer).
(§19) NOTES (numbers refer to Sequence numbers above)
(§20) 1, 2, 5. White Medium Binding Greiner 1536-well plates (Cat #789175-F, Greiner Bio-One, Monroe, NC); Reaction buffer: 50 mM Tris, pH 8.0, 3 mM MgCl2, 1 mM EDTA, 50 mM NaCl, 1 mM DTT, and 0.1 mg/mL BSA. Evaporation was prevented by covering assay plates with metal lids containing holes to allow gas diffusion.
(§21) 1. Six SMMTase were profiled: HNMT, GNMT, PNMT, COMT, NNMT, GAMT
(§22) 5. The corresponding substrate was used for each enzyme: HNMT - 5.3 uM Histamine; GNMT - >500 uM Glycine; PNMT - 16.2 uM Norephinephrine; COMT - 13.7 uM Norephinephrine; NNMT - 3.8 uM Nicotinamide; GAMT - 2.5 uM Guanidinoacetate.6, 8, 10. Room temperature
(§23) 6. Final reaction conditions: 10 nM COMT, 5 uM SAM, 15 uM norepinephrine, 50 mM Tris, pH 8.0, 3 mM MgCl2, 1 mM EDTA, 50 mM NaCl, 1 mM DTT, and 0.1 mg/mL BSA; refer to tables 2 and S1 for specific timing.
8. […]

[2] = biological target: Guanidinoacetate N-methyltransferase (Homo sapiens) (UniProt Q14353); settings: purified enzyme, MTase-Glo SAH luminescence; measured here: GAMT inhibition; at 40 µM; stronger effect = lower value
Text: as §1, §2, §3, §4, §5, §6, §7, §8, §9, §10, §11, §12, §13, §14, §15, §16, §17, §18, §19, §20, §21, §22, §23
8. […]

[3] = biological target: Histamine N-methyltransferase (Homo sapiens) (UniProt P50135); settings: purified enzyme, MTase-Glo SAH luminescence; measured here: HNMT inhibition; at 40 µM; stronger effect = lower value
Text: as §1, §2, §3, §4, §5, §6, §7, §8, §9, §10, §11, §12, §13, §14, §15, §16, §17, §18, §19, §20, §21, §22, §23
8. […]

[4] = biological target: Nicotinamide N-methyltransferase (Homo sapiens) (UniProt P40261); settings: purified enzyme, MTase-Glo SAH luminescence; measured here: NNMT inhibition; at 40 µM; stronger effect = lower value
Text: as §1, §2, §3, §4, §5, §6, §7, §8, §9, §10, §11, §12, §13, §14, §15, §16, §17, §18, §19, §20, §21, §22, §23
8. […]

[5] = biological target: Phenylethanolamine N-methyltransferase (Homo sapiens) (UniProt P11086); settings: purified enzyme, MTase-Glo SAH luminescence; measured here: PNMT inhibition; at 40 µM; stronger effect = lower value
Text: as §1, §2, §3, §4, §5, §6, §7, §8, §9, §10, §11, §12, §13, §14, §15, §16, §17, §18, §19, §20, §21, §22, §23
8. […]
On the % scale 0 is the no-effect control and ±100 the full control effect.

Compound | activity change, negative = inhibition [1] [%] | activity change, negative = inhibition [2] [%] | activity change, negative = inhibition [3] [%] | activity change, negative = inhibition [4] [%] | activity change, negative = inhibition [5] [%]
CCN1CCN(C(=O)c2ccc(-c3nnc4ccc(NC(=O)C5CC5)cn34)cc2)CC1 | -1.72 | -1.26 | -0.759 | -1.29 | -0.024
CC1CCC2(C)CCC3(C)C(=CCC4C5(C)CCC(O)C(C)(C(=O)O)C5CCC43C)C2C1C (stereo not given) | 4.66 | 7.56 | 14.6 | -10.5 | 6.58
CCN(CC)CCNC(=O)c1ccc(NS(C)(=O)=O)cc1 | 1.3 | 14.2 | 9.49 | -2.61 | 6.39
Cc1cccc(N2CCN(C(=O)CCc3nnc4n(Cc5ccccc5)c(=O)c5ccccc5n34)CC2)c1C | 0.095 | 0.813 | 7.73 | 5.88 | 0.737
CSc1ccc(CCN2C(=O)Cn3cccc3C2C(=O)NC2CCC(C)CC2)cc1 (stereo not given) | -0.89 | 4.1 | -2.69 | -9.53 | -2.08
CNC(=S)NS(=O)(=O)c1cc(CCNC(=O)c2cc(Cl)ccc2OC)ccc1OC | -1.01 | -7.97 | -0.497 | -19.7 | -7.05
CCCn1c(=O)c2cc(F)ccc2n2c(SCC(=O)Nc3cc(Cl)ccc3OC)nnc12 | -3.06 | 0 | 5.97 | 0.481 | -1.39
O=C1CCCCC(C(=O)NC2CCCC2)N1 (stereo not given) | -1.55 | -1.82 | 2.26 | -3.6 | -0.728
CC(C)CCNC(=O)C1(C)Cn2c(cc3ccccc32)C(=O)N1Cc1cccnc1 (stereo not given) | 8.55 | 4.63 | 10.8 | 13.7 | 4.41
CCCN1C(=O)c2c(C(=O)NCc3ccc(OC)cc3)ncn2CC1(C)C(=O)NCc1ccccc1 (stereo not given) | -3.58 | 2.14 | 4.86 | -0.122 | 1.79
